Laboratory results published in PMC5703999, “The E. coli dicarboxylic acid transporters DauA act as a signal transducer by interacting with the DctA uptake system” (Scientific Reports, 2017).
Results are given in words; binding and its absence hold for the method and conditions named. For part of these data: In cells and extracts the contact can be indirect. Some entries that bind do so weakly or less than the wild type. Sequences can lack the tags named with a protein. Blank lines part the entries; values can stand above or below the binder they belong to.

Key:
[1] = molecular target: T1, Chromosomally encoded C-terminally His-tagged DauA (E. coli K-12) (UniProt P0AFR2); assay: pull-down; EK9 membrane proteins (2% DDM) incubated with cobalt sepharose beads 1 h at 4 °C; DauA-His eluted with 500 mM imidazole; elution fractions blotted with anti-His, anti-FLAG and anti-DcuS
T1 sequence: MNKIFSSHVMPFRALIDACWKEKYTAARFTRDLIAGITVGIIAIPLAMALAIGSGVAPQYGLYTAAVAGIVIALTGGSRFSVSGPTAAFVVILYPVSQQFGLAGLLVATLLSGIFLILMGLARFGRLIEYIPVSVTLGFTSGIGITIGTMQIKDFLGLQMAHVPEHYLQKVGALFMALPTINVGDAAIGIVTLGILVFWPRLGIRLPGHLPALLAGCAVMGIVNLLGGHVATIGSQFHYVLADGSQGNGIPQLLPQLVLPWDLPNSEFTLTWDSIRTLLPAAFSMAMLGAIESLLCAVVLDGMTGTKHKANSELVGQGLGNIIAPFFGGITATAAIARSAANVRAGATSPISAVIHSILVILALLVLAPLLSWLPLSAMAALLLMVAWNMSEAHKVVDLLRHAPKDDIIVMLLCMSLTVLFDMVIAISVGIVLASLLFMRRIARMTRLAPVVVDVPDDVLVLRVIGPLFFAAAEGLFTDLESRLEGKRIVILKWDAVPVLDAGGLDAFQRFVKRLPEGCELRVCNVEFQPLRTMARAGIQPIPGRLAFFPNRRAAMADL

[2] = molecular target: T2, Chromosomally encoded FLAG-tagged DctA (E. coli K-12) (UniProt P0A830); assay: co-IP; IMAC elution fractions of EK9 re-purified on anti-FLAG M2 affinity gel, eluted with 0.1 M glycine HCl pH 3; blots with anti-His and anti-FLAG
T2 sequence: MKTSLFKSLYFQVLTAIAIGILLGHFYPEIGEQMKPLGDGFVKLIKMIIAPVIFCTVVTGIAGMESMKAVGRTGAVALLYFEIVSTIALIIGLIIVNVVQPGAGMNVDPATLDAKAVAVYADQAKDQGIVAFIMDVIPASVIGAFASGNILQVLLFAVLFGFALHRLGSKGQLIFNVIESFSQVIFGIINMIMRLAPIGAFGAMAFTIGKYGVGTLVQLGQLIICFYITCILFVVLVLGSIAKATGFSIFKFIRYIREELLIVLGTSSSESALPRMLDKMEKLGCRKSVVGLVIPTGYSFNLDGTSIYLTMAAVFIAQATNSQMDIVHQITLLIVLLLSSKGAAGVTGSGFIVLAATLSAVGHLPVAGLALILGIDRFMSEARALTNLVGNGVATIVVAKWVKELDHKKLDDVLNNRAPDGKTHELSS

[3] = molecular target: T3, DctA fused to the T18 or T25 domain of adenylate cyclase (E. coli) (UniProt P0A830); assay: two-hybrid; bacterial two-hybrid (BTH): T18 and T25 fusions co-transformed in E. coli BTH101 (cyaA-), grown overnight in LB at 30 °C; beta-galactosidase activity; background below 150 Miller units; the reporter strain expresses chromosomal DctA and DcuS
T3 sequence: T2 sequence

[4] = molecular target: T4, DauA fused to the T18 or T25 domain of adenylate cyclase (E. coli) (UniProt P0AFR2); assay: as above
T4 sequence: T1 sequence

B2: Chromosomally encoded C-terminally His-tagged DauA (protein, UniProt P0AFR2 1-559)
chain: T1 sequence
binding [2]: binds

B6: AmtB (ammonium transporter), two-hybrid fusion (natural protein, UniProt P69681 1-428, looked up)
chain: MKIATIKTGLASLAMLPGLVMAAPAVADKADNAFMMICTALVLFMTIPGIALFYGGLIRGKNVLSMLTQVTVTFALVCILWVVYGYSLAFGEGNNFFGNINWLMLKNIELTAVMGSIYQYIHVAFQGSFACITVGLIVGALAERIRFSAVLIFVVVWLTLSYIPIAHMVWGGGLLASHGALDFAGGTVVHINAAIAGLVGAYLIGKRVGFGKEAFKPHNLPMVFTGTAILYIGWFGFNAGSAGTANEIAALAFVNTVVATAAAILGWIFGEWALRGKPSLLGACSGAIAGLVGVTPACGYIGVGGALIIGVVAGLAGLWGVTMLKRLLRVDDPCDVFGVHGVCGIVGCIMTGIFAASSLGGVGFAEGVTMGHQLLVQLESIAITIVWSGVVAFIGYKLADLTVGLRVPEEQEREGLDVNSHGENAYNA
notes: Ammonium transporter AmtB; source: bacterial two-hybrid fusion, in E. coli BTH101 (cyaA-)
binding [4]: no binding (tested: below 150 Miller units (background))

Other lines, results leading:

binding [1]: binds
B1: Chromosomally encoded FLAG-tagged DctA (protein, UniProt P0A830 1-428)
chain: T2 sequence

binding [1]: no binding
B3: DcuS fused to the T18 or T25 domain of adenylate cyclase (natural protein, E. coli, UniProt P0AEC8 1-543, looked up)
chain: MRHSLPYRMLRKRPMKLSTTVILMVSAVLFSVLLVVHLIYFSQISDMTRDGLANKALAVARTLADSPEIRQGLQKKPQESGIQAIAEAVRKRNDLLFIVVTDMQSLRYSHPEAQRIGQPFKGDDILKALNGEENVAINRGFLAQALRVFTPIYDENHKQIGVVAIGLELSRVTQQINDSRWSIIWSVLFGMLVGLIGTCILVKVLKKILFGLEPYEISTLFEQRQAMLQSIKEGVVAVDDRGEVTLINDAAQELLNYRKSQDDEKLSTLSHSWSQVVDVSEVLRDGTPRRDEEITIKDRLLLINTVPVRSNGVIIGAISTFRDKTEVRKLMQRLDGLVNYADALRERSHEFMNKLHVILGLLHLKSYKQLEDYILKTANNYQEEIGSLLGKIKSPVIAGFLISKINRATDLGHTLILNSESQLPDSGSEDQVATLITTLGNLIENALEALGPEPGGEISVTLHYRHGWLHCEVNDDGPGIAPDKIDHIFDKGVSTKGSERGVGLALVKQQVENLGGSIAVESEPGIFTQFFVQIPWDGERSNR
notes: Membrane embedded sensor histidine kinase DcuS, E. coli; also called DcuS-T18; DcuS-T25; source: bacterial two-hybrid fusion (pUT18 or pKNT25), in E. coli BTH101 (cyaA-); not shown: T18 or T25 domain of Bordetella pertussis adenylate cyclase CyaA, C-terminal, kept

binding [3]: binds
B4: DauA(1-444), truncated DauA lacking the STAS domain, two-hybrid fusion (domain or fragment, UniProt P0AFR2 1-444)
chain: MNKIFSSHVMPFRALIDACWKEKYTAARFTRDLIAGITVGIIAIPLAMALAIGSGVAPQYGLYTAAVAGIVIALTGGSRFSVSGPTAAFVVILYPVSQQFGLAGLLVATLLSGIFLILMGLARFGRLIEYIPVSVTLGFTSGIGITIGTMQIKDFLGLQMAHVPEHYLQKVGALFMALPTINVGDAAIGIVTLGILVFWPRLGIRLPGHLPALLAGCAVMGIVNLLGGHVATIGSQFHYVLADGSQGNGIPQLLPQLVLPWDLPNSEFTLTWDSIRTLLPAAFSMAMLGAIESLLCAVVLDGMTGTKHKANSELVGQGLGNIIAPFFGGITATAAIARSAANVRAGATSPISAVIHSILVILALLVLAPLLSWLPLSAMAALLLMVAWNMSEAHKVVDLLRHAPKDDIIVMLLCMSLTVLFDMVIAISVGIVLASLLFMRRIAR

binding [3]: no binding
B5: Isolated STAS domain of DauA fused to the T18 or the T25 domain of adenylate cyclase (domain or fragment, UniProt P0AFR2 449-559)
chain: APVVVDVPDDVLVLRVIGPLFFAAAEGLFTDLESRLEGKRIVILKWDAVPVLDAGGLDAFQRFVKRLPEGCELRVCNVEFQPLRTMARAGIQPIPGRLAFFPNRRAAMADL
